# Values joined by “and” are separate entries in the source; they are usually repeats but may differ in a detail not shown here. Equal entries are not always repeated. About 31,000 (8.9%) of roughly 350,000 compounds were called active. This list was built around the results that the source calls inconclusive (neither active nor inactive); the mix of calls is not that of the screen. Calls come from the whole dose curve; as a rule, active = well fitted inhibition curve with a large enough effect; inconclusive = small, poorly fitted or top-dose-only effect; inactive = no such curve, though single readings can be large or run the other way. Potencies beside an inconclusive call are fits to weak or partial responses and may not hold up.
# Target: Histone-lysine N-methyltransferase EHMT2 (Homo sapiens) (UniProt Q96KQ7)
# Assay: qHTS Assay for Inhibitors of Histone Lysine Methyltransferase G9a; note: nearly all actives have a fitted effect of over 75% in size
# Details: G9a H3K9 monomethylation, AlphaScreen, 2 h; activity, negative = inhibition: at 59 µM (top of the series) unless noted
# Method in brief: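 G9a (20 nM) preincubated 15 min RT with compounds, then 500 nM biotinylated H3K9 peptide and 20 uM SAM added; 2 h RT reaction. Monomethyl-H3K9 product detected by AlphaScreen with anti-H3K9me1 antibody, streptavidin donor and anti-rabbit IgG acceptor beads.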
# % is set by controls: 0 for no effect and ±100 for the full control effect; potency is the fitted concentration of half-maximal effect; tags give direction and shape of the fitted curve.
# UniProt Q96KQ7, sequence (Q96KQ7 whole entry, looked up): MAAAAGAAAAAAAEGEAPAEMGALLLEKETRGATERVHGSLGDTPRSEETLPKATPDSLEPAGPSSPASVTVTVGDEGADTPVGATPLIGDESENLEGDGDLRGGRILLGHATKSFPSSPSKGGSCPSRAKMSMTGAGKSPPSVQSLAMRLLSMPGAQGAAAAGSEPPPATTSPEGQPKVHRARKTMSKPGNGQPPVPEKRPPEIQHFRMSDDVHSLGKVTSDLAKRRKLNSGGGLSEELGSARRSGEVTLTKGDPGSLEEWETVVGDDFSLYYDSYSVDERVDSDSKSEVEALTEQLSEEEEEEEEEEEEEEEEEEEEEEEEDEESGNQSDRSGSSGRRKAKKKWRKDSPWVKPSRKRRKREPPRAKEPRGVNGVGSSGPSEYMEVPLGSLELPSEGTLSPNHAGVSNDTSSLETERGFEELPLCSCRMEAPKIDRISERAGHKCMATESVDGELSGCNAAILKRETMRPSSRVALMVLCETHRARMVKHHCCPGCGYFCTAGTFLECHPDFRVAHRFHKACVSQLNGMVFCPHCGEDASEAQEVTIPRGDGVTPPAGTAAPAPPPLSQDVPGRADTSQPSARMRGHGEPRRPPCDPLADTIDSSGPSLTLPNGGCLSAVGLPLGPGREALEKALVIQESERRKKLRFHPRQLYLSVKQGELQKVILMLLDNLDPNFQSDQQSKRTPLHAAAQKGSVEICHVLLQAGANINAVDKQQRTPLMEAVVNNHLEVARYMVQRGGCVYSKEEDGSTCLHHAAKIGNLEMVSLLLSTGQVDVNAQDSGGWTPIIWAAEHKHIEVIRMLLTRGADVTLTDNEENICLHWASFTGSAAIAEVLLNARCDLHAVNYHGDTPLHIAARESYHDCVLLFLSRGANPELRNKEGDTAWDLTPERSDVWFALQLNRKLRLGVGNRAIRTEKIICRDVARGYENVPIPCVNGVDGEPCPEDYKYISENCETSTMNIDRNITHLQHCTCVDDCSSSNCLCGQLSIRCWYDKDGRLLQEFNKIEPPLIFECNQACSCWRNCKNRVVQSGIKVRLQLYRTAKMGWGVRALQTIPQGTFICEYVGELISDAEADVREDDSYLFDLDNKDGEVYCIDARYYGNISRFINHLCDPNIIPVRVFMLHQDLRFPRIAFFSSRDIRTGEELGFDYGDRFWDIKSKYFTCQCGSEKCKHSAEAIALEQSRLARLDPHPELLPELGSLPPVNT
Structure (SMILES),Potency,"activity, negative = inhibition"
CN1C(=O)C2C(c3ccc(N(C)C)cc3)NN(Cc3ccccc3)C2C1=O (stereo unspecified),"inconclusive: 15.8 µM [inhibitor, partial curve, poor fit]",–
CCOC(=O)c1[nH]c(C)c(C(=O)Nc2ccc3c(c2)CCC3)c1C,"inconclusive: 79.4 µM [inhibitor, partial curve, poor fit]",–
Cc1cccc(NC(=O)c2cccc(C(=O)Nc3cccc(C)n3)c2)n1,"inconclusive: 56.2 µM [inhibitor, partial curve, poor fit]",–
CCOc1ccc(C(=O)c2cn(CC(=O)Nc3cc(OC)cc(OC)c3)c3ccc(F)cc3c2=O)cc1,"inconclusive: 8.91 µM [inhibitor, partial curve, poor fit]",–
OC(CC#CCN1CCCC1)(c1ccccc1)c1ccccc1,active: 28.2 µM,–
COc1ccc(Br)cc1/C=N/N1CCN(Cc2ccccc2)CC1,"inconclusive: 28.2 µM [inhibitor, single point]",–
O=C(COC(=O)CSc1cccc2cccc(Cl)c12)Nc1ncc(C(F)(F)F)cc1Cl,"inconclusive: 35.5 µM [inhibitor, single point]",–
COc1ccc(C2C3=C(CC(C)(C)CC3=O)Oc3ncn(Cc4ccco4)c(=N)c32)cc1 (stereo unspecified),"inconclusive: 44.7 µM [inhibitor, partial curve]",–
Cc1nn(-c2ccccc2)c(Cl)c1/C=N/NC(=O)c1ccnn1C,"inconclusive: 79.4 µM [inhibitor, single point]",–
c1ccc(-c2ccc(CNC3CC3)cc2)cc1,"inconclusive: 50.1 µM [inhibitor, partial curve, poor fit]",–
CC(C)COC(=O)C(N)C(C(=O)OCC(C)C)c1ccccc1 (stereo unspecified),"inconclusive: 89.1 µM [inhibitor, partial curve, poor fit]",–
c1ccc2nc(C3=NCCN3)ccc2c1,"inconclusive: 56.2 µM [inhibitor, single point] and inconclusive: 37.7 µM [inhibitor, partial curve, poor fit]",–
CC(=O)N1c2ccc(S(=O)(=O)N(C)C3CCCCC3)cc2CC1C (stereo unspecified),inactive,–
FC(F)(F)c1cccc(NC(=S)NNC(=S)Nc2cccc(C(F)(F)F)c2)c1,active: 35.5 µM,–
Cc1ccc(-n2cnc3cc(NCc4cccs4)ccc32)cc1,"inconclusive: 7.94 µM [inhibitor, partial curve, poor fit]",–
Cc1cccc(OCc2nnc(SCC(=O)Nc3ccc(C)cc3C)o2)c1,inactive,–
COc1cc2cc(CCCOC(=O)c3ccc(C(F)(F)F)cc3)oc(=O)c2cc1OC,–,inactive: 4.2% [at 2.33 µM]
CCOC(CNC(=O)CN1C(=O)COc2ccc(S(=O)(=O)N3CCCC3)cc21)OCC,inactive,–
O=C(N1CCC(O)(c2cccnc2)CC1)C12CC3CC(CC(C3)C1)C2,inactive,–
CC(C)CC(=O)OCC(=O)Nc1ccccc1Sc1ccccc1,inactive,–
Cc1noc(C)c1C(=O)Nc1sc(C)c(-c2ccccc2)c1C#N,"inconclusive: 15.8 µM [inhibitor, partial curve, poor fit]",–
Cc1ccc(S(=O)(=O)N2CC(=NN=C(N)N)C2)cc1,"inconclusive: 89.1 µM [inhibitor, single point]",–
CCOc1ccc(-n2c(C)nc3c(cnn3-c3ccc(C)cc3)c2=O)cc1,inactive,–
CCN(CC)CCOC(=O)c1ccc(NC(=O)c2ccc(Cl)c(S(=O)(=O)N3CCCCCC3)c2)cc1,"inconclusive: 50.1 µM [inhibitor, partial curve, poor fit]",–

Structure (SMILES),Potency,"activity, negative = inhibition"
CCC(=O)N(CCc1ccc(S(N)(=O)=O)cc1)C1CC(=O)N(c2ccc(OC)cc2)C1=O (stereo unspecified),active: 56.2 µM,–
Cn1nc(-c2ccc(Cl)cc2)c2cc(C(=O)NCCCN3CCCC3)sc21,"inconclusive: 79.4 µM [inhibitor, single point]",–
O=C(COC(=O)Cc1ccsc1)Nc1ccc(Br)cc1,"inconclusive: 31.6 µM [inhibitor, single point]",–
N#Cc1ccc(CSC2=NCCN2)cc1,"inconclusive: 70.8 µM [inhibitor, partial curve, poor fit]",–
CCOc1ccc(CCNC(=O)C2CC(=O)N(c3ccc4c(c3)OCCO4)C2)cc1OCC (stereo unspecified),–,inactive: -11.2% [at 12.7 µM]
Cc1cc(F)ccc1S(=O)(=O)Nc1ccccc1C(=O)NC1CCN(Cc2ccccc2)CC1,"inconclusive: 79.4 µM [inhibitor, single point]",–
Cc1cccc(S(=O)(=O)NCCNS(=O)(=O)c2cccc(C)c2)c1,"inconclusive: 39.8 µM [inhibitor, single point]",–
Cc1cc(/C([O-])=C(/C(=S)Nc2ccc(F)cc2)[n+]2ccccc2)c(C)n1Cc1ccccc1Cl,"inconclusive: 6.31 µM [inhibitor, full curve, poor fit]",–
Cc1cc(C)n2c(SC/C(O)=C(\C#N)c3nc4ccccc4[nH]3)nnc2n1,inactive,–
Cc1ccc(C(C)C)cc1OCCOCCN1CCCC1,active: 12.6 µM,–
CCn1c2ccccc2c2cc(NC(=O)CSc3nnc(-c4ccccc4OC)n3N)ccc21,"inconclusive: 39.8 µM [inhibitor, partial curve, poor fit]",–
CCOC(=O)c1sc(NC(=O)CSc2nc(C)cc(-c3ccccc3)n2)c(C#N)c1C,–,inconclusive: -116% [inhibitor] [at 12.7 µM]
COc1ccccc1OCC(=O)Nc1ccccn1,active: 20 µM,–
Cc1ccc(/C=C/C(=O)Nc2nn[nH]n2)o1,"inconclusive: 35.5 µM [inhibitor, single point]",–
COc1ccc(CC(NC(C)=O)C(=O)NC2CCN(C(=O)Nc3ccccc3C)CC2)cc1OC (stereo unspecified),"inconclusive: 39.8 µM [inhibitor, single point]",–
CCN(CC(=O)Nc1c(F)cccc1F)C(=O)c1ccc(Sc2nncn2C)c([N+](=O)[O-])c1,inactive,–
O=C(CCSCCC(=O)Nc1ccccc1F)Nc1ccccc1F,"inconclusive: 89.1 µM [inhibitor, single point]",–
O=C(c1ccc(F)cc1F)N1CCCC(c2nc(-c3ccc(F)cc3)no2)C1 (stereo unspecified),inactive,–
O=C(CN1CCN(Cc2ccccc2Cl)C1=O)NCc1ccccc1Cl,inactive,–
CCN(CC)S(=O)(=O)c1ccc(C(=O)NCCOC(=O)c2ccc(F)cc2F)cc1,inactive,–
COc1cccc(CN2CCNC(=O)C2CC(=O)N(C)Cc2cnccn2)c1OC (stereo unspecified),"inconclusive: 79.4 µM [inhibitor, single point]",–
COc1ccc(C(=O)SC2=NCCS2)cc1,"inconclusive: 8.91 µM [inhibitor, partial curve, poor fit]",–
O=C(CCl)N(CCc1ccccc1)CCc1ccccc1,inactive,–
CCOc1ccc(C(=O)CC(NCc2cccs2)C(=O)O)cc1 (stereo unspecified),active: 25.1 µM,–

Structure (SMILES),Potency,"activity, negative = inhibition"
CN(C)C(CNC(=O)c1ccc(-c2ccccc2)cc1)c1ccccc1 (stereo unspecified),inactive,–
Cc1ccc(S(=O)(=O)N2CCN(CC(=O)NC3CCCc4ccccc43)CC2)c(C)c1 (stereo unspecified),"inconclusive: 50.1 µM [inhibitor, partial curve, poor fit]",–
Cc1cccc(CC(=O)N2CCN(C(=O)c3ccco3)CC2)c1,inactive,–
CC(C)CC(=O)NC(NC(=S)Nc1sc2c(c1C#N)CCCC2)C(Cl)(Cl)Cl (stereo unspecified),"inconclusive: 1.58 µM [inhibitor, partial curve, poor fit]",–
C=CCN(C(=O)CCS(=O)(=O)c1cccc2nsnc12)c1ccccc1,active: 44.7 µM,–
CC(C)[C@H](NC(=O)c1ccccc1Cl)C(=O)Nc1nc(-c2ccccn2)cs1,inactive,–
CCN(CCCCOC(=O)c1ccc(OC)c(OC)c1)[C@@H](C)Cc1ccc(OC)cc1,inactive,–
COC(=O)CN1C(=O)S/C(=C/c2cc(C)n(C)c2C)C1=O,–,inconclusive: -63% [inhibitor]
COc1ccc(-c2nnc(SCC#CCO)o2)cc1OC,active: 15.8 µM,–
CN(CC(=O)N1CCN(c2ccccc2)CC1)C1CCCc2ccccc21 (stereo unspecified),inactive,–
O=C(CN1CCN(c2ccccc2F)CC1)c1ccc2c(c1)OCO2,active: 20 µM,–
CCOC(=O)C(CC(=O)O)NCc1ccco1 (stereo unspecified),active: 39.8 µM,–
Nn1c(SCC(=O)Nc2ccccc2F)nnc1-c1cccs1,–,inactive: 8.17% [at 2.33 µM]
Cc1nnc(C)n1/N=C/c1cc(Br)ccc1O,active: 10 µM,–
O=c1ccc2cc(S(=O)(=O)Nc3ccc(Br)cc3)ccc2o1,inactive,–
COc1cc(C2Nc3ccc4ncccc4c3C3=C2C(=O)CC(C)(C)C3)cc(OC)c1O (stereo unspecified),"inconclusive: 39.8 µM [inhibitor, single point]",–
CC(CNC(=O)Cn1ccc2cc(S(=O)(=O)N3CCCCC3)ccc21)c1ccccc1 (stereo unspecified),inactive,–
N#CC1=C(S)N(c2ccccc2)C(c2cccs2)NC1=O (stereo unspecified),–,inconclusive: -85.2% [inhibitor]
Cc1c(NC(=O)OCCNC(=O)Nc2ccccc2)sc(=S)n1C,–,inconclusive: -83.2% [inhibitor]
CC1CCCN(C(=O)c2ccc(Cl)c(S(=O)(=O)N3CCCCCC3)c2)C1 (stereo unspecified),"inconclusive: 14.1 µM [inhibitor, single point]",–
CC(C)CC(C(=O)O)N1C(=O)C2C3CC(C2C1=O)C1C(c2ccccc2)c2sc(=O)[nH]c2SC31 (stereo unspecified),"inconclusive: 35.5 µM [inhibitor, single point]",–
CCOc1cc(/C=C2\NC(=S)N(C)C2=O)ccc1OCc1ccc(C(=O)O)cc1,"inconclusive: 89.1 µM [inhibitor, single point]",–
O=C(NCC(c1ccc2c(c1)OCO2)N1CCOCC1)c1ccccc1F (stereo unspecified),"inconclusive: 28.2 µM [inhibitor, single point]",–

# — PubChem BioAssay AID504332 (National Center for Advancing Translational Sciences (NCATS), 2011)
